The text below walks through data of the supplement of paper PMC10369915.

The other results are listed elsewhere or left out. Cut-off read from the data, not from the text of the source: active = 3.2 or more and inactive = the rest. The signal is at background level for most entries.
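Note: displayed peptides selected on beads carrying the immobilized SH2 domain, with library peptides lacking any tyrosine serving as negative controls.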

The target of the first assay is SHP2 C-SH2 domain E139D. Briefly: enrichment score (SH2-bound / input frequency) (ratio); bacterial display of known human phosphotyrosine sites (pTyr-Var adds point mutants) read by sequencing; higher = stronger binding; tyrosines were phosphorylated by kinases first. The conditions noted are these: peptide library: Human pTyr.
For AQPEQDEYDIPRHLL [BCAR1_HUMAN_234], the enrichment score is inactive: 0.892.

As to SHSFRGAYGLAMKVA [TNS3_HUMAN_1206], the enrichment score was inactive: 1.49.

In the case of WQNARQAYSPRRGRS [THRAP3_HUMAN_118_YA], the enrichment score is inactive: 0.727.

As for KVSSTHAYLLPERPS [TNK2_HUMAN_860_YA], the enrichment score is inactive: 1.18.

Consider WQNYRQAYSPRRGRS [THRAP3_HUMAN_118], for which the enrichment score was inactive: 0.887.

Regarding ILEEEKIYAAPSNIT [TM192_HUMAN_213_YA], the enrichment score is inactive: 0.87.

NRGGAGNYRSNWQNA [THRAP3_HUMAN_107_YA]: the enrichment score was inactive: 1.49.

For MLEERKTYVNTTLAE [TIE2_HUMAN_1102_YA], the enrichment score is inactive: 0.836.

For the molecule AKVEFGVYESGPRKS [BCAP_HUMAN_694], the enrichment score was inactive: 0.851.

With GPLDGSPYAQVQRPP [TNS2_HUMAN_483], the enrichment score is inactive: 0.796.

Regarding AIKRMKEYASKDDHR [TIE2_HUMAN_860], the enrichment score is inactive: 1.39.

Turning to DGLDKDEYTFSPGKS [TOP2B_HUMAN_1421], the enrichment score was inactive: 0.742.

For the molecule EEITEEQYAMMRRAE [THEMIS_HUMAN_540_YA], the enrichment score was inactive: 1.13.

As to IHNEDITYDELVLMM [TFG_HUMAN_33], the enrichment score was inactive: 1.39.

With AKGNLQEYLTRHVIS [TGFBR2_HUMAN_336], the enrichment score was inactive: 1.43.

In the case of CETVISAYTDMEEIG [BCAP_HUMAN_263_YA], the enrichment score is inactive: 1.22.

As to GFHTHADYVLEMNMA [THOP1_HUMAN_278], the enrichment score is inactive: 0.759.

With ERNHPRVYQNRDFRG [THRAP3_HUMAN_68], the enrichment score was inactive: 1.22.

A further assay concerns the target SHP2 C-SH2 domain wild-type. The description is as above. The following applies: peptide library: Human pTyr.
Consider AQPEQDEYDIPRHLL [BCAR1_HUMAN_234], for which the enrichment score is inactive: 0.746.

Consider SHSFRGAYGLAMKVA [TNS3_HUMAN_1206], for which the enrichment score is inactive: 1.26.

On to WQNARQAYSPRRGRS [THRAP3_HUMAN_118_YA], for which the enrichment score is inactive: 0.797.

As to KVSSTHAYLLPERPS [TNK2_HUMAN_860_YA], the enrichment score was inactive: 0.925.

Regarding WQNYRQAYSPRRGRS [THRAP3_HUMAN_118], the enrichment score is inactive: 0.765.

For ILEEEKIYAAPSNIT [TM192_HUMAN_213_YA], the enrichment score is inactive: 0.744.

In the case of NRGGAGNYRSNWQNA [THRAP3_HUMAN_107_YA], the enrichment score was inactive: 1.28.

Regarding MLEERKTYVNTTLAE [TIE2_HUMAN_1102_YA], the enrichment score is inactive: 0.593.

Regarding AKVEFGVYESGPRKS [BCAP_HUMAN_694], the enrichment score is inactive: 0.802.

Turning to GPLDGSPYAQVQRPP [TNS2_HUMAN_483], the enrichment score was inactive: 1.62.

AIKRMKEYASKDDHR [TIE2_HUMAN_860]: the enrichment score was inactive: 1.49.

With DGLDKDEYTFSPGKS [TOP2B_HUMAN_1421], the enrichment score was inactive: 0.619.

Regarding EEITEEQYAMMRRAE [THEMIS_HUMAN_540_YA], the enrichment score was inactive: 1.04.

With IHNEDITYDELVLMM [TFG_HUMAN_33], the enrichment score was inactive: 1.18.

Turning to AKGNLQEYLTRHVIS [TGFBR2_HUMAN_336], the enrichment score is inactive: 1.42.

Take CETVISAYTDMEEIG [BCAP_HUMAN_263_YA]: the enrichment score was inactive: 1.04.

GFHTHADYVLEMNMA [THOP1_HUMAN_278]: the enrichment score was inactive: 0.62.

For ERNHPRVYQNRDFRG [THRAP3_HUMAN_68], the enrichment score was inactive: 0.902.

Another assay deals with SHP2 N-SH2 domain L43F. Described as above. The conditions noted are these: peptide library: Human pTyr.
With AQPEQDEYDIPRHLL [BCAR1_HUMAN_234], the enrichment score is inactive: 0.881.

Regarding SHSFRGAYGLAMKVA [TNS3_HUMAN_1206], the enrichment score was inactive: 1.7.

On to WQNARQAYSPRRGRS [THRAP3_HUMAN_118_YA], for which the enrichment score was inactive: 0.846.

KVSSTHAYLLPERPS [TNK2_HUMAN_860_YA]: the enrichment score is inactive: 0.791.

With WQNYRQAYSPRRGRS [THRAP3_HUMAN_118], the enrichment score is active: 4.76.

ILEEEKIYAAPSNIT [TM192_HUMAN_213_YA]: the enrichment score is inactive: 0.91.

Turning to NRGGAGNYRSNWQNA [THRAP3_HUMAN_107_YA], the enrichment score was inactive: 1.27.

Regarding MLEERKTYVNTTLAE [TIE2_HUMAN_1102_YA], the enrichment score was inactive: 0.623.

In the case of AKVEFGVYESGPRKS [BCAP_HUMAN_694], the enrichment score was inactive: 0.841.

For the molecule GPLDGSPYAQVQRPP [TNS2_HUMAN_483], the enrichment score was inactive: 0.444.

In the case of AIKRMKEYASKDDHR [TIE2_HUMAN_860], the enrichment score is inactive: 1.16.

Take DGLDKDEYTFSPGKS [TOP2B_HUMAN_1421]: the enrichment score is inactive: 1.06.

As for EEITEEQYAMMRRAE [THEMIS_HUMAN_540_YA], the enrichment score was inactive: 1.28.

As for IHNEDITYDELVLMM [TFG_HUMAN_33], the enrichment score was inactive: 1.36.

As to AKGNLQEYLTRHVIS [TGFBR2_HUMAN_336], the enrichment score was inactive: 1.43.

For CETVISAYTDMEEIG [BCAP_HUMAN_263_YA], the enrichment score was inactive: 0.966.

In the case of GFHTHADYVLEMNMA [THOP1_HUMAN_278], the enrichment score is inactive: 0.737.

Take ERNHPRVYQNRDFRG [THRAP3_HUMAN_68]: the enrichment score is inactive: 0.832.

A further assay concerns the target SHP2 N-SH2 domain T42A. The description is as above. The following applies: peptide library: Human pTyr.
For the molecule AQPEQDEYDIPRHLL [BCAR1_HUMAN_234], the enrichment score was inactive: 0.633.

With SHSFRGAYGLAMKVA [TNS3_HUMAN_1206], the enrichment score is inactive: 1.38.

Take WQNARQAYSPRRGRS [THRAP3_HUMAN_118_YA]: the enrichment score is inactive: 0.843.

Take KVSSTHAYLLPERPS [TNK2_HUMAN_860_YA]: the enrichment score was inactive: 0.903.

Consider WQNYRQAYSPRRGRS [THRAP3_HUMAN_118], for which the enrichment score is inactive: 0.682.

Turning to ILEEEKIYAAPSNIT [TM192_HUMAN_213_YA], the enrichment score was inactive: 0.538.

Consider NRGGAGNYRSNWQNA [THRAP3_HUMAN_107_YA], for which the enrichment score was inactive: 1.41.

Regarding MLEERKTYVNTTLAE [TIE2_HUMAN_1102_YA], the enrichment score was inactive: 0.772.

Turning to AKVEFGVYESGPRKS [BCAP_HUMAN_694], the enrichment score was inactive: 0.652.

Take GPLDGSPYAQVQRPP [TNS2_HUMAN_483]: the enrichment score was inactive: 0.458.

Consider AIKRMKEYASKDDHR [TIE2_HUMAN_860], for which the enrichment score was inactive: 1.24.

As to DGLDKDEYTFSPGKS [TOP2B_HUMAN_1421], the enrichment score is inactive: 0.839.

With EEITEEQYAMMRRAE [THEMIS_HUMAN_540_YA], the enrichment score was inactive: 1.2.

IHNEDITYDELVLMM [TFG_HUMAN_33]: the enrichment score was inactive: 1.46.

With AKGNLQEYLTRHVIS [TGFBR2_HUMAN_336], the enrichment score is inactive: 1.21.

As for CETVISAYTDMEEIG [BCAP_HUMAN_263_YA], the enrichment score is inactive: 1.22.

Turning to GFHTHADYVLEMNMA [THOP1_HUMAN_278], the enrichment score was inactive: 0.668.

In the case of ERNHPRVYQNRDFRG [THRAP3_HUMAN_68], the enrichment score was inactive: 0.932.

The target of the next assay is SHP2 N-SH2 domain T52S. The assay is described as above. The following applies: peptide library: Human pTyr.
As for AQPEQDEYDIPRHLL [BCAR1_HUMAN_234], the enrichment score was inactive: 0.726.

On to SHSFRGAYGLAMKVA [TNS3_HUMAN_1206], for which the enrichment score is inactive: 1.37.

Turning to WQNARQAYSPRRGRS [THRAP3_HUMAN_118_YA], the enrichment score is inactive: 0.774.

For the molecule KVSSTHAYLLPERPS [TNK2_HUMAN_860_YA], the enrichment score was inactive: 0.988.

With WQNYRQAYSPRRGRS [THRAP3_HUMAN_118], the enrichment score is inactive: 0.777.

Regarding ILEEEKIYAAPSNIT [TM192_HUMAN_213_YA], the enrichment score was inactive: 0.693.

For NRGGAGNYRSNWQNA [THRAP3_HUMAN_107_YA], the enrichment score is inactive: 1.61.

On to MLEERKTYVNTTLAE [TIE2_HUMAN_1102_YA], for which the enrichment score was inactive: 0.669.

Take AKVEFGVYESGPRKS [BCAP_HUMAN_694]: the enrichment score is inactive: 0.708.

As for GPLDGSPYAQVQRPP [TNS2_HUMAN_483], the enrichment score is inactive: 0.505.

With AIKRMKEYASKDDHR [TIE2_HUMAN_860], the enrichment score is inactive: 1.27.

In the case of DGLDKDEYTFSPGKS [TOP2B_HUMAN_1421], the enrichment score was inactive: 1.49.

On to EEITEEQYAMMRRAE [THEMIS_HUMAN_540_YA], for which the enrichment score was inactive: 0.845.

For IHNEDITYDELVLMM [TFG_HUMAN_33], the enrichment score is inactive: 1.49.

Take AKGNLQEYLTRHVIS [TGFBR2_HUMAN_336]: the enrichment score is inactive: 1.43.

For CETVISAYTDMEEIG [BCAP_HUMAN_263_YA], the enrichment score is inactive: 1.28.

Regarding GFHTHADYVLEMNMA [THOP1_HUMAN_278], the enrichment score is inactive: 0.72.

For ERNHPRVYQNRDFRG [THRAP3_HUMAN_68], the enrichment score is inactive: 0.893.

The target of another assay is SHP2 N-SH2 domain wild-type. Described as above. The following applies: peptide library: Human pTyr.
Consider AQPEQDEYDIPRHLL [BCAR1_HUMAN_234], for which the enrichment score is inactive: 0.749.

Turning to SHSFRGAYGLAMKVA [TNS3_HUMAN_1206], the enrichment score is inactive: 1.88.

Consider WQNARQAYSPRRGRS [THRAP3_HUMAN_118_YA], for which the enrichment score was inactive: 0.64.

As to KVSSTHAYLLPERPS [TNK2_HUMAN_860_YA], the enrichment score was inactive: 1.01.

With WQNYRQAYSPRRGRS [THRAP3_HUMAN_118], the enrichment score was inactive: 0.854.

As for ILEEEKIYAAPSNIT [TM192_HUMAN_213_YA], the enrichment score is inactive: 0.922.

Turning to NRGGAGNYRSNWQNA [THRAP3_HUMAN_107_YA], the enrichment score was inactive: 2.17.

Take MLEERKTYVNTTLAE [TIE2_HUMAN_1102_YA]: the enrichment score was inactive: 0.704.

On to AKVEFGVYESGPRKS [BCAP_HUMAN_694], for which the enrichment score is inactive: 0.83.

With GPLDGSPYAQVQRPP [TNS2_HUMAN_483], the enrichment score is inactive: 0.548.

Regarding AIKRMKEYASKDDHR [TIE2_HUMAN_860], the enrichment score was inactive: 1.44.

Consider DGLDKDEYTFSPGKS [TOP2B_HUMAN_1421], for which the enrichment score was inactive: 0.601.

On to EEITEEQYAMMRRAE [THEMIS_HUMAN_540_YA], for which the enrichment score was inactive: 0.996.

IHNEDITYDELVLMM [TFG_HUMAN_33]: the enrichment score was inactive: 1.39.

AKGNLQEYLTRHVIS [TGFBR2_HUMAN_336]: the enrichment score is inactive: 1.77.

As for CETVISAYTDMEEIG [BCAP_HUMAN_263_YA], the enrichment score is inactive: 1.44.

Turning to GFHTHADYVLEMNMA [THOP1_HUMAN_278], the enrichment score was inactive: 0.624.

As to ERNHPRVYQNRDFRG [THRAP3_HUMAN_68], the enrichment score was inactive: 0.902.
